Data published in the supplement of paper PMC10126150.
Values marked as one replicate rest on one cluster of the flow cell; about a third of the high ones do not repeat.

Test system: ATP
Experiment: switch fluorescence ratio, 500 uM ATP over buffer (Cy3 cluster intensity, sum of 5 cycles each) (fold (ratio)); higher = stronger signal-on switching upon ATP binding; sequences stand for … in TCGTCGGCAGCGTCAGATGTGTATAAGAGACAGTTTTTTTTTTTTTTTTTTTTTTTTT…TC
Conditions: aptamer strand: ATP DNA aptamer (quencher-CACCTGGGGGAGTATTGCGGAGGAAGG + anchor), 100 nM annealed; ATP concentration: 500 uM; one replicate
Method in brief: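 Switching-strand clusters labelled with Cy3 on a modified Illumina MiSeq flow-cell were annealed to 100 nM quencher-labelled ATP aptamer, imaged in selection buffer, and re-imaged after 15 min with 500 uM ATP at 22 °C. This was done over five cycles with NaOH stripping and re-annealing in between. The fluorescence ratio is summed target-cycle over summed buffer-cycle Cy3 intensity per cluster, averaged per switch-domain sequence, excluding clusters outside 100-1000 RFU.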
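Also: ATP exposure 15 min at 22 °C before imaging.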

Sequence	switch fluorescence ratio
GCGCGGGAGG	0.998
ATGATAAATC	0.994
GCTAGGTCG	1.15
ATACGCCTAA	1.05
GCGGCTTGGC	0.988
TAGTTTGAGT	1.03
TGAACTACTA	1.07
TTCGGCACGC	1.33
GCTAGTTGCT	0.98
GTCTGCAGCT	0.99
ATTAAACAGA	0.96
GATACCGCAT	4.3
CAGGTGTCGT	1.04
CGTTGACCCT	0.984
AGGTGTGATC	1.04
TTGGTACCA	0.984
CTTCAGGAGG	1.02
ATGGCCTGCT	1.01
GGCTAATTAT	0.952
ATAATGGCCC	0.951
AGTGCCTGGA	1.08
ATCTCAAGCC	0.994
GAAGTGTCG	1.1
TGGAAGGTGA	1.02
ACCTATTGT	1.04
CGTATTACGG	1.02

Sequence	switch fluorescence ratio
TTTATTAGCG	1.02
CACGGGCCAT	1.04
AATGTCACGT	1.02
CCGTCGGTG	1.1
TGTGGTTGCT	1.02
GACAAGTTTT	0.985
AAGGTCGGTG	0.964
ACAGCGGTTA	0.995
ATACCACAAT	1.08
GAGGTCGCTA	1.03
GATGCCATGG	0.98
ATTCCGAGC	1.68
GTGGTCGTAT	0.997
CGTTATTAAA	0.982
GGGAGGCCCT	1.07
TTGGGCTAGT	0.952
AGGCCAGGCC	1.05
GAACGAGACG	1.05
AGGGGAGCAA	1.45
AAAACGTAG	1.01
TTAAGCGGGG	0.992
TGGACTGTCC	1.02
GTCGGAAGCG	1.03
TGTCATTTGC	0.964
TGCCTGCTTT	0.958
CACACGCCGA	1.09

Sequence	switch fluorescence ratio
GGGGCGTTT	1
TGTATCATCT	1.01
TGTACGTTGC	1.04
TAAGGGGTTG	1.01
TTGGTCCTAT	0.947
TTAATGGCCT	1.01
TCTTTTTTAT	0.973
TGTCGTGATG	1.04
CAGACGCAGA	3.95
GTTGGAGAGC	0.964
CGTGACACAG	0.972
GGGAATCTGA	1.01
ACCTGCGTTT	0.987
AACTTCTTCG	1.08
GTTTATTCT	0.943
TTCCAGCGGG	0.986
ACGCGTTGTC	1.06
CGGATGGTAA	0.972
GTCGGTATAG	0.989
ATCCGAAAGG	1.04
AAACGGCG	0.994
AGATAGGATA	0.995
GTGTGTCGG	1.03
ATACTAACGA	1.29
GGACTGGCTT	0.895
TTGGCTCATT	1.02

Sequence	switch fluorescence ratio
ACGGGAGAAA	1.05
TTAAGATACT	1.06
AATGGTAG	0.972
TCTAAGAATT	1.02
CGCGTTGAGA	1.04
CTGGTTGTAA	0.987
GGATTTAGGG	0.958
GCGCATCTAA	1.06
TGCGATAGCG	0.956
CGTGCTGCCC	1.01
CTATCCTTTT	1.03
TGATTAAGC	0.996
TGTATGTAGG	1.01
AAGTCTCTTT	0.979
TAGATTTCGG	0.968
GAGGATTCTT	0.987
AAGAGTTGT	0.996
TCAAGTGG	1.02
GAAAGAAAGA	0.958
CATTATGCCG	0.971
AGAGATTCAG	1.02
GGTTATTTGC	1.07
TTCAAGAAAG	1
TTGGGCCTTT	0.979
AAAAACCTGG	1.23
AAAGCTATTG	0.988

Sequence	switch fluorescence ratio
AGGCCGACAG	1.02
AGGATGACTA	1.04
AATGGGCATA	0.985
TTATACTTCT	1
GCTAGTGAAT	0.994
CCTGGTTATG	1.01
CCCGCCGCGG	1.97
ACCCTTATTT	0.99
GGTAACTTTC	1.05
ACGTGATATT	1.18
GTTGTACATT	0.955
TTGATAGGAC	1.08
GATAAGGTTA	1.07
TAACAAAATT	0.985
TATGGCTGCT	0.959
GGGGTGGTCT	0.978
TATGCTTAAG	1.01
TAATAACGAC	1.07
GCACATGCAG	0.967
AAATGGTTAC	1.03
TGCACTTTTT	1.05
TTTTTAACAA	1.03
TATTTGTGAG	0.993
GTTAGACGAG	1.01
TAACTTTTAT	1.04
AGCAACCCGG	1.39

Sequence	switch fluorescence ratio
GAGCCACGCA	1.02
GAGAATTAAG	1.01
AAGATACGAT	1.04
ACGTTTTACG	1.01
GGCGGCCTAC	1.01
TAATTTGCAT	0.992
CTATTCAGAC	1.01
TCCAGCACGG	1.01
GAATTCGCCG	0.976
CCAAACATGG	0.976
TATTAGGCGG	1.02
CATCCGGGCG	1.35
CCTCGTATCA	1.09
CCCAGGTACC	1.1
ATCCGTACTG	1.06
CTGATCAATA	1.48
TTCGATACAT	1.04
TATCTCAGCA	1.05
TTCGGGTCGT	1.03
GGGTGGCGAA	1.02
CGAGTCGTT	1.02
CACTGTCTTC	1.03
GAGAGGCTCG	0.979
AAACACACCT	1.37
CGGAATGCGT	1.04
AAGTCCTGG	1.07

Sequence	switch fluorescence ratio
GATGTGGGG	0.963
GCCTGTTCCG	1.22
GTTCAGTGTT	1.04
GGGCTATCAG	1
GGGGAGG	0.948
TTAACCAAAG	0.962
GTATGGCTGC	0.973
GGAGGGT	0.954
CACGGGTTCG	1.02
GGTGTGTCAG	1.01
GTTCGGTAAT	1.04
CGCAACTTTT	1.15
ATTAAGGCTG	0.998
TGGCTGTCAG	0.993
AGAGGGTTG	1.01
ATGGGGTTTA	0.99
TCTATATGC	1.04
TGGGCTTGAG	1.23
CATACATAGA	0.979
AATTACGAGA	1.05
CCGATGTTTA	1.14
AGCGTGATCG	1.04
CTCGCTGGGT	1
ATTGCTTGAT	0.99
ATAAAGCGCG	1.1
TGATGAAAGC	1.07

Sequence	switch fluorescence ratio
TGACTAGCTT	1.02
GACGTGTGGA	1
TAAGATATGA	1.02
CCATTAGACT	1.01
AAGAGGCTTG	1
TTAATCTGG	0.974
GGTGGCTATT	0.993
CGTTGGTGGA	1.03
ATCAATTTTG	0.994
CTGCCGGGAT	1.09
TGTTAGCTGC	1.05
TGGTTACA	0.982
TTGTGTGAAT	1.01
GGATCGCATC	1.14
ATAATCCAAG	1.01
TTTGTAGTT	1.04
TAGATGGCCA	1.04
AGCGTCTAGT	0.969
TAACTAAGTG	0.938
